This note sets out measurements from PubChem BioAssay AID1645882 (National Center for Advancing Translational Sciences (NCATS), 2021).

In all, about 16,000 compounds went through this assay and about 120 (0.75%) were called active. Roughly 4% stayed inconclusive and do not appear here. Calls follow the shape of the dose curve; as a rule, active = well fitted inhibition curve with a large enough effect; inconclusive = small, poorly fitted or top-dose-only effect; inactive = no such curve, though single readings can be large or run the other way. The list shows a part of the results.
Potency is read from the fitted curve at half-maximal effect.

Sequence of UniProt O95398 (O95398 whole entry, looked up): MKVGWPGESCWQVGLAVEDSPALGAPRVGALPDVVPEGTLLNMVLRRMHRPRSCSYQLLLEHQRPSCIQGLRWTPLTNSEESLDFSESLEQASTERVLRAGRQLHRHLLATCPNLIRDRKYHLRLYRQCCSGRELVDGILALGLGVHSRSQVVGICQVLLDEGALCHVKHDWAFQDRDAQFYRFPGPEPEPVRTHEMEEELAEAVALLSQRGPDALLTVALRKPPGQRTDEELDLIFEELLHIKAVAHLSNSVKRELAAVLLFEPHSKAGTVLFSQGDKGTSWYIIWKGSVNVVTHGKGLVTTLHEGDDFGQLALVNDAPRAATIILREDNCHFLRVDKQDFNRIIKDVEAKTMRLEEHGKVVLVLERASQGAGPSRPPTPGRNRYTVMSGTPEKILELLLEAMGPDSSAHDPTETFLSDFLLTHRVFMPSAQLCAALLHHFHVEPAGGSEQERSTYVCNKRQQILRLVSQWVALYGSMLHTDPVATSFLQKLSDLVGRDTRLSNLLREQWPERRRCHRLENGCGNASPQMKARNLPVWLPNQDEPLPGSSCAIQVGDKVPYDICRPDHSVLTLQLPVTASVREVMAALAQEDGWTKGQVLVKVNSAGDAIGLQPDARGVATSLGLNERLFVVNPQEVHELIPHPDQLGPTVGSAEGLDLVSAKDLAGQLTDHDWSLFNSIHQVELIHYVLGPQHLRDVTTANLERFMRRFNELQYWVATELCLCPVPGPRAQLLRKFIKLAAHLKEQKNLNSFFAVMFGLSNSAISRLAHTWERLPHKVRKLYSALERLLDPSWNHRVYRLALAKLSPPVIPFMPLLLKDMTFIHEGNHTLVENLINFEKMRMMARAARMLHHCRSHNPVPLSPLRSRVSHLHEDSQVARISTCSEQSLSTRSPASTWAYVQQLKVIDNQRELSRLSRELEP

The assay concerns the target Rap guanine nucleotide exchange factor 3 (Homo sapiens) (UniProt O95398). Put plainly: Validation qHTS for antagonist of cAMP-regulated guanine nucleotide exchange factor 3 (EPAC1). Also: nearly all actives have a fitted effect of over 75% in size.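 As to activity change, negative = inhibition: plate controls were DMSO for no effect and ATA control for full effect.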 The following applies: EPAC1 Rap1B-BODIPY-GDP exchange, fluorescence; series mostly up to 150 µM; activity change, negative = inhibition: at the top concentration. The gist of the method:
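EPAC1 (100 nM) mixed with 250 nM RAP1B-BODIPY-GDP and 50 uM GDP; compounds in concentration series, 5 min at room temperature. Fluorescence (ex 480/em 540 nm) read every 5 min for 30 min; normalized to ATA control and DMSO.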
In general terms: qHTS replaces the single test concentration by a dilution series.
As to `CC(C)=CCC/C(C)=C\COc1c2ccoc2cc2oc(=O)ccc12`, the “activity change, negative = inhibition” value was inactive: -12%. As for `O=C(NCCc1ccncc1)c1cnn(-c2ncc3c(n2)-c2ccccc2CCC3)c1C1CC1`, the “activity change, negative = inhibition” value is inactive: 9.65%. On the same count and under the same terms, the value for `COc1cc(C(=O)Oc2ccc3c(OC)c4ccoc4nc3c2OC)cc(OC)c1OC` was inactive: 7.56%; that for `COC(=O)CC1[C@@]2(C)C[C@]34OC5(C)OC6(C7CC(=O)OC(c8ccoc8)[C@]7(C)CCC6(O5)[C@]13C)C(OC(C)=O)[C@]4(OC(C)=O)C2OC(C)=O` (some centres undefined) was inactive: 20%; that for `COc1ccc(NC(=O)N2CC[C@@]3(CCCN(C(=O)c4ccc(OC)cc4)C3)C2)cc1` was inactive: 34.9%. The same measure, in the same setting: the value for `CC/C=C\C/C=C\C/C=C\C/C=C\C/C=C\CCCCCC(=O)O` was inactive: 10.9% [at 15.3 µM]. For `COc1ccc(C(=O)N2CCC[C@@]3(CCN(C(=O)Nc4ccccc4)C3)C2)cc1`, the “activity change, negative = inhibition” value was inactive: 3.45%. Consider `CCC1(C2CCN(C(=O)c3cc(C)cc(C)c3)CC2)NC(=O)N(CCc2scnc2C)C1=O` (centres undefined), for which the “activity change, negative = inhibition” value was inactive: 10.1%. As for `O=C(c1ccncc1)N1CCC2(CC1)CN(c1ccccc1)C2`, the “activity change, negative = inhibition” value was inactive: 2.82%. Same read-out and setting: the value for `COC(=O)[C@@H]1[C@H]2C[C@H]3c4[nH]c5ccccc5c4CCN3C[C@@H]2CC[C@@H]1O` was “inactive”; that for `C[C@]12C=CC(=O)C=C1CC[C@@H]1[C@@H]2[C@@H](O)C[C@@]2(C)[C@H]1CC[C@]2(O)C(=O)COC(=O)CCC(=O)O` was inactive: 50%. In the case of `Cc1cnc(SCCN2CCOCC2)nc1C1CCCN(C(=O)c2cccc3c(C)c(C)[nH]c23)C1` (centres undefined), the “activity change, negative = inhibition” value is inactive: 15.4%. Consider `COc1ccc(-n2c(=O)c(CCc3ccccc3)nc3cnc(N(C)C)nc32)cc1`, for which the “activity change, negative = inhibition” value is inactive: 15%. As for `CCC(C)n1ncn(-c2ccc(N3CCN(c4ccc(OC[C@H]5CO[C@](Cn6cncn6)(c6ccc(Cl)cc6Cl)O5)cc4)CC3)cc2)c1=O` (some centres undefined), the “activity change, negative = inhibition” value was inactive: -6.01%. Take `NC(Cc1ccc(O)c(O)c1)C(=O)O` (centres undefined): the Potency is active: 50.1 µM. For the molecule `NC(=O)CC[C@@H]1NC(=O)[C@H](Cc2ccccc2)NC(=O)[C@H](Cc2ccc(O)cc2)NC(=O)CCSSC[C@@H](C(=O)N2CCC[C@H]2C(=O)N[C@@H](CCCN=C(N)N)C(=O)NCC(N)=O)NC(=O)[C@H](CC(N)=O)NC1=O`, the activity change, negative = inhibition result was “inactive”.

Consider `COc1ccccc1-c1ccnc(-n2ncc(C(=O)NCc3ccncc3)c2C)n1`, for which the “activity change, negative = inhibition” value is inactive: 13.4%. Same read-out and setting: in the case of `NCC[C@H](O)C(=O)N[C@@H]1C[C@H](N)[C@@H](O[C@H]2O[C@H](CN)CC[C@H]2N)[C@H](O)[C@H]1O[C@H]1O[C@H](CO)[C@@H](O)[C@H](N)[C@H]1O` it was inactive: 10.9%; in that of `O=Cc1ccccc1-c1cn(CN2C(=O)c3ccccc3C2=O)nn1`, inactive: -6.83%. Take `COc1ccc(NC(=O)N2CCCC3(CCN(S(=O)(=O)c4ccccc4)CC3)C2)cc1`: the “activity change, negative = inhibition” value is inactive: 11.8%. The same measure, in the same setting: the value for `COC(=O)C(CN)c1c[nH]c2ccc(OC)cc12` (centres undefined) was inactive: -0.266%. In the case of `CC1(C)NC(=O)N(c2ccc([N+](=O)[O-])c(C(F)(F)F)c2)C1=O`, the activity change, negative = inhibition entry was “inactive”. As for `CCn1c(-c2ccccc2F)nc2cc(NC(C)=O)cc(C(=O)N3CCNC(=O)C3CC(=O)OC)c21` (centres undefined), the “activity change, negative = inhibition” value was inactive: 17.7%. For `CCN1C(=O)CC(CC(=O)N2CCCCC2c2nccs2)(c2ccccc2C)C1=O` (centres undefined), the “activity change, negative = inhibition” value was inactive: 21.4%. On to `Cc1cnc(SCc2ccccn2)nc1C1CCCN(C(=O)c2scc3c2CCCC3)C1` (centres undefined), for which the “activity change, negative = inhibition” value was inactive: -3.8%. Regarding `COc1cccc(Nc2ncc3nc(C)c(=O)n(-c4ccccc4)c3n2)c1`, the “activity change, negative = inhibition” value is inactive: -16.7%. The same measure, in the same setting: in the case of `COc1ccc(C(=O)N2CCOc3ccc(CN4CCN(c5ccccn5)CC4)cc3C2)o1` it was inactive: 5.62%; in that of `O=S1(=O)CCOCCCN1Cc1cccc(C(F)(F)F)c1`, inactive: 15.4%; in that of `CC(=O)N1CCC[C@@]2(CCN(Cc3nccs3)C2)C1`, inactive: 21.3%. For the molecule `O=C(CCCN1CCC(C(=O)c2ccc(F)cc2)CC1)c1ccc(F)cc1`, the “activity change, negative = inhibition” value is inactive: 6.23%. Turning to `Cc1ccn(CCC(=O)NCC2Cc3cc(Cl)cc(-c4ccc5[nH]ccc5c4)c3O2)n1` (centres undefined), the “activity change, negative = inhibition” value was inactive: 11%.

Take `CCOC(=O)C(=O)C1(C(=O)OCC)Oc2cc(OC)cc(OC)c2C(=O)C1c1ccccc1` (centres undefined): the “activity change, negative = inhibition” value is inactive: 1.68%. On to `CC[C@@H](C)[C@@H](CO[C@@H](Cc1ccccc1)C(=O)N[C@@H](CCS(C)(=O)=O)C(=O)OC(C)C)NC[C@@H](N)CS`, for which the “activity change, negative = inhibition” value is inactive: 27.9%. As for `COCCn1c(=O)c(-c2cccc(C#N)c2)nc2cnc(Oc3cccc(Cl)c3)nc21`, the “activity change, negative = inhibition” value was inactive: 10.3%. With `COC(=O)c1ccc(C(=O)NCC2Cc3cccc(-c4ccc(C(=O)OC)cn4)c3O2)cc1` (centres undefined), the “activity change, negative = inhibition” value was inactive: 8.75%. Turning to `CC(=O)N[C@@H]([C@@H](O)[C@H](O)[C@H](O)CO)[C@@H](O)CC(=O)C(=O)O`, the “activity change, negative = inhibition” value is inactive: 10.8%. On the same count and under the same terms, the value for `COc1ccc(CN2CCC3(CC2)c2ccccc2[C@@H](NC(=O)c2ccsc2)[C@@H]3OC)cc1O` was inactive: 1.92%. On the same count and under the same terms, in the case of `COc1cccc(CNc2ccc3nc(-c4ccc(N)cc4)c(OC)n3n2)c1` it was “inactive”; in that of `CC(=O)N1CCC[C@@]2(CCN(c3ccccc3)C2)C1`, inactive: 10.1%; in that of `COC(=O)N1CCC[C@@]2(CCN(C(=O)Nc3cccc(F)c3)C2)C1`, inactive: 16.1%. On to `O=C(Nc1cccc(F)c1)N1CC[C@@]2(CCCN(S(=O)(=O)c3ccccc3)C2)C1`, for which the “activity change, negative = inhibition” value was inactive: 5.39%. As for `CC(=O)Nc1ccccc1-c1nc(CNC(=O)c2cc(C)ccc2C)c(C)o1`, the “activity change, negative = inhibition” value is inactive: 10.2%. As for `CC(=O)OC1c2c(ccc3ccc(=O)oc23)OC(C)(C)C1OC(=O)CC(C)C` (centres undefined), the “activity change, negative = inhibition” value is inactive: -21.8%. Same read-out and setting: in the case of `CC(C)NCC(O)COc1cccc2ccccc12` (centres undefined) it was “inactive”.
